# Data from the supplement of paper PMC6531468.
# This is one part of the list. These are enrichments in a pooled selection; single values are uncertain. Scores sum up all selected molecules that hold the word; the word was not tested alone.
# How the values were obtained:
# Test in all cases: 6-mer SELEX enrichment z-score vs GST control; IMP3 is the RNA-binding protein IGF2BP3; higher = more enriched by binding
# [1] = tested on: IMP3 KH1-4; settings: construct: KH1-4 (164-579); SELEX round: R4
# Description: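 SELEX-seq with GST-tagged IMP3 KH1-4 (Pro164-Lys579) and an N40 RNA pool, round 4. 6-mer z-score of sequence-tag enrichment normalised to the corresponding GST SELEX round; RNA k-mers written as DNA (T for U).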
# [2] = tested on: IMP3 RRM1-2; settings: construct: RRM1-2 (1-163); SELEX round: R2
# Description: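 SELEX-seq with GST-tagged IMP3 RRM1-2 (Met1-Asn163) and an N40 RNA pool, round 2. 6-mer enrichment z-score normalised to GST SELEX. RNA written as DNA (T = U).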
# [3] = molecular target: IMP3 full-length (UniProt O00425); settings: construct: FL IMP3 (1-579); SELEX round: R4
# Description: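 SELEX-seq with GST-tagged full-length IMP3 and an N40 RNA pool, round 4. Each 6-mer is scored as an enrichment z-score of sequence tags containing it, normalised to the matching GST SELEX round. RNA written as DNA (T = U).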
# [4] = tested on: IMP3 KH1-2; settings: construct: KH1-2 (164-376); SELEX round: R4
# Description: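 SELEX-seq with GST-tagged IMP3 KH1-2 (Pro164-Phe376) and an N40 RNA pool, round 4 (stringent 300/600 mM KCl washes). 6-mer z-score of sequence-tag enrichment normalised to the corresponding GST SELEX round; RNA k-mers written as DNA (T for U).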
# [5] = tested on: IMP3 KH3-4; settings: construct: KH3-4 (377-579); SELEX round: R4
# Description: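 SELEX-seq with GST-tagged IMP3 KH3-4 (Pro377-Lys579) and an N40 RNA pool, round 4. 6-mer z-score of sequence-tag enrichment normalised to the corresponding GST SELEX round; RNA k-mers written as DNA (T for U).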
# Chain of IMP3 RRM1-2 (chain, as listed by the source): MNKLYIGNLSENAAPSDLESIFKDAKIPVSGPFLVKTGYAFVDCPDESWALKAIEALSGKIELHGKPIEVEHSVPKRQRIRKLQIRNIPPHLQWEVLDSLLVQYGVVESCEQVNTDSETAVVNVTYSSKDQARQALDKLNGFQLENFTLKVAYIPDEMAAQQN
# Chain of IMP3 KH3-4 (chain, as listed by the source): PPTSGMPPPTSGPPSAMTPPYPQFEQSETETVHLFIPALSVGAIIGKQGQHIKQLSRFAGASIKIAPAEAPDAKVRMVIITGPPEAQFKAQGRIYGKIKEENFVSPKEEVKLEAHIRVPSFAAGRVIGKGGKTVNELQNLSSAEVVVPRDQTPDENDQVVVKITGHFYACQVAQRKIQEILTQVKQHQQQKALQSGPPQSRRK
# Chain of IMP3 KH1-2 (chain, as listed by the source): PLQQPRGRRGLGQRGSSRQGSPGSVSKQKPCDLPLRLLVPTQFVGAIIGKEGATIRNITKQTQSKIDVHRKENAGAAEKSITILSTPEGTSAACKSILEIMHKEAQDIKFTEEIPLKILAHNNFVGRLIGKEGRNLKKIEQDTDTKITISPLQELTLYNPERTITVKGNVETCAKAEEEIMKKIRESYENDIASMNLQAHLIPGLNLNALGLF
# Chain of IMP3 KH1-4 (chain, as listed by the source): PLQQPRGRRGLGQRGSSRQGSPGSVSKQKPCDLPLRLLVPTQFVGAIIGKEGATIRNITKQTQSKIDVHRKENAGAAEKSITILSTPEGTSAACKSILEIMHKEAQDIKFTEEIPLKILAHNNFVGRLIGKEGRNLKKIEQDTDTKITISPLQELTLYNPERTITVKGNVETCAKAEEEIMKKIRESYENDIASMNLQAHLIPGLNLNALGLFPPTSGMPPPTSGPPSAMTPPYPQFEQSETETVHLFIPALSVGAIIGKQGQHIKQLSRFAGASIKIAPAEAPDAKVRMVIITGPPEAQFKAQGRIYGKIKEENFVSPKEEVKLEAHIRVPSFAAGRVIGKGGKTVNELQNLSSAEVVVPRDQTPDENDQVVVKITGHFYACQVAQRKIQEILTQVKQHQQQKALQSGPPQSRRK
# Chain of UniProt O00425 (O00425 whole entry): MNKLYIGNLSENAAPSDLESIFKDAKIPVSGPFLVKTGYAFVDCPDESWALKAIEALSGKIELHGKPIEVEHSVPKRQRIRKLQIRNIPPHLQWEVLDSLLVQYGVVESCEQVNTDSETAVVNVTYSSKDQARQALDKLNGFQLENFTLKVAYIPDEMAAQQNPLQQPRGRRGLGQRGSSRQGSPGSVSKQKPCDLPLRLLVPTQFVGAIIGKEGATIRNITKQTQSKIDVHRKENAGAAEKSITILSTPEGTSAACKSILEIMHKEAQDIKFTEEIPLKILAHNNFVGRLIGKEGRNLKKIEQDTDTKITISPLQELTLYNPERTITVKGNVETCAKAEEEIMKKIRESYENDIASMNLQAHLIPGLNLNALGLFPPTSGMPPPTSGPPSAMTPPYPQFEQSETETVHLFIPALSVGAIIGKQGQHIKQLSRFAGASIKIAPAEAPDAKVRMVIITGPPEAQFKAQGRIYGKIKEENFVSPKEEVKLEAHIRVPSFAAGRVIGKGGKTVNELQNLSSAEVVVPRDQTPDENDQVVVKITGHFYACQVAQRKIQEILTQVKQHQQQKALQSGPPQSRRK
Sequence,6-mer SELEX enrichment z-score [1],6-mer SELEX enrichment z-score [2],6-mer SELEX enrichment z-score [3],6-mer SELEX enrichment z-score [4],6-mer SELEX enrichment z-score [5]
CAGGTG,0.145,0.326,0.427,0.087,0.078
AGCGAG,-2.07,-0.47,-0.63,-1.85,-1.65
ATTTCC,1.03,-0.039,-0.059,1.05,0.57
GCCGTT,-0.196,0.011,0.068,-0.04,-0.102
CAGGCT,0.319,0.697,0.865,0.275,0.332
CTTGCT,-0.011,0.35,-0.016,0.037,0.019
GTGCGA,-0.35,-0.173,-0.145,-0.355,-0.302
TGTTAG,0.206,0.289,-0.035,0.062,0.254
TACGTG,0.113,-0.128,-0.236,-0.047,0.093
GACGGA,-0.378,-1.07,-0.318,-0.368,-0.352
TCGTTG,-0.325,0.275,-0.165,-0.333,-0.214
CCGGAT,0.042,-0.597,-0.06,0.037,-0.006
TGCTTC,0.171,0.343,0.11,0.182,0.127
CTCTAT,0.462,0.234,0.071,0.466,0.464
TCACAC,1.46,3.05,2.16,1.65,0.331
GCTCGG,-0.204,0.426,0.644,-0.136,0.019
CTACCG,-0.615,-0.62,-0.613,-0.454,-0.906
AGTGGC,0.949,0.198,0.91,0.694,0.935
ACCGCA,0.484,-0.046,0.459,0.804,-0.346
TGAGGA,0.796,-0.534,0.048,0.461,0.762
